Among all 360,000 compounds or so, about 25,000 (6.9%) were called active. The inconclusive results got no clear call from the source; some entries with a clear call stand among them for comparison. Calls follow the shape of the dose curve; as a rule, active = well fitted inhibition curve with a large enough effect; inconclusive = small, poorly fitted or top-dose-only effect; inactive = flat fitted curve, though single readings scatter. Potencies of inconclusive entries are doubtful fits and often do not repeat.
molecular target: Luciferin 4-monooxygenase (Photinus pyralis) (UniProt P08659); experiment: qHTS profiling assay for firefly luciferase inhibitor/activator using purifed enzyme and Km concentrations of substrates (counterscreen for miR-21 project); conditions: purified FLuc, luminescence inhibition; activity change, negative = inhibition: at 57.5 µM (top of the series); also: nearly all actives have a fitted effect of over 55% in size;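 as to activity change, negative = inhibition: plate controls were vehicle for no effect and reference inhibitor for full effect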
In short: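 Biochemical qHTS of compounds, final roughly 60 µM downward over six points, against 10 nM purified firefly luciferase using Km concentrations of substrates (10 uM D-luciferin, 10 uM ATP) in Tris acetate pH 7.5 buffer; luminescence output.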
Potency is read from the fitted curve at half-maximal effect; tags tell the direction and shape of the fitted curve.

Sequence of UniProt P08659 (P08659 whole entry, looked up): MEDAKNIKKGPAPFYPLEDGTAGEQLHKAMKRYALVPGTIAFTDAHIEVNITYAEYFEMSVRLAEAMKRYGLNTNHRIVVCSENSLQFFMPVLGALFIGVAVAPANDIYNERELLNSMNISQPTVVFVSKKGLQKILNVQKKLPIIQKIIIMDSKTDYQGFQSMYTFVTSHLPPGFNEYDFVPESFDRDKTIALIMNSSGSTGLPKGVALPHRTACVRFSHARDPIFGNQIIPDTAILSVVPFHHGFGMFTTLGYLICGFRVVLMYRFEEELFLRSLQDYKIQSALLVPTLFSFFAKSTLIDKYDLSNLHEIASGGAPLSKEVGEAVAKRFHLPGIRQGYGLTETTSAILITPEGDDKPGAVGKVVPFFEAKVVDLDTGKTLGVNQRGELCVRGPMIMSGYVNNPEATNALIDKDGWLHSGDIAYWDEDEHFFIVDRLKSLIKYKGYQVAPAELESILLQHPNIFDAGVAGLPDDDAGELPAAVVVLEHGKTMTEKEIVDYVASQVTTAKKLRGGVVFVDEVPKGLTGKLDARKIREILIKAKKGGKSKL

Row | SMILES | Potency | activity change, negative = inhibition
1 | CCn1c(SCC(=O)Nc2ccc(N3CCOCC3)cc2)nnc1-c1ccco1 | inconclusive: 19 µM [inhibitor, partial curve] | –
2 | O=C(c1cc(-c2cccs2)nc2ccccc12)N1CCN(S(=O)(=O)c2ccccc2)CC1 | inconclusive: 12 µM [inhibitor, partial curve, poor fit] | –
3 | O=C(c1cnn(C(=O)c2ccc(O)cc2)c1)c1ccccc1O | active: 3.79 µM | –
4 | CC(Oc1cccc(NC(=O)c2cccs2)c1)C(=O)c1ccccc1 (stereo unspecified) | inconclusive: 23.9 µM [inhibitor, single point] | –
5 | CS(=O)(=O)c1ccc2nc(NC(=O)Nc3ccccc3F)sc2c1 | active: 0.536 µM | –
6 | O=C(NCc1ccccc1)N(Cc1cc2cc3c(cc2[nH]c1=O)OCCO3)CC1CCCO1 (stereo unspecified) | inconclusive: 37.9 µM [inhibitor, partial curve, poor fit] | –
7 | O=C(COC(=O)C12CC3CC(CC(O)(C3)C1)C2)Nc1cccc(Br)c1 | active: 13.5 µM | –
8 | COc1ccc(-c2cc(C(=O)NCCN3CCOCC3)c3ccccc3n2)cc1OC | inconclusive: 19 µM [inhibitor, single point] | –
9 | CCCCC[C@H](O)/C=C/C1=C(CCCCCCC(=O)O)C(=O)CC1 | inconclusive: 15.1 µM [inhibitor, partial curve, poor fit] | –
10 | O=C(NCCc1ccc2c(c1)OCCO2)c1ccc(F)cc1 | inconclusive: 23.9 µM [inhibitor, single point] | –
11 | CC1CCCN(C(=O)c2sc3cc([N+](=O)[O-])ccc3c2Cl)C1 (stereo unspecified) | inconclusive: 21.3 µM [inhibitor, partial curve, poor fit] | –
12 | Cn1cc(Cl)cc(C(=O)Nc2ccccc2)c1=O | inconclusive: 12 µM [inhibitor, partial curve] | –
13 | COc1ccc(C(=O)COC(=O)c2ccco2)cc1 | active: 1.07 µM | –
14 | Cc1ccc(C)c(OCC(=O)Nc2ccc(S(=O)(=O)Nc3onc(C)c3C)cc2)c1C | inconclusive: 15.1 µM [inhibitor, partial curve] | –
15 | Cc1c(Cl)c([N+](=O)[O-])nn1Cc1ccc(C(=O)N/N=C\c2ccccn2)o1 | inconclusive: 37.9 µM [inhibitor, partial curve, poor fit] | –
16 | CCC(C(=O)Nc1ccccc1OC)n1nc(C)c2sc3ccccc3c2c1=O (stereo unspecified) | – | inactive: 4.86%
17 | Cc1cc(O)c(/C=N/Nc2cccc(Cl)c2)c(=O)o1 | active: 15.1 µM | –
18 | COc1cccc(-n2c(C)c3c(OC)cccc(=O)c3c2C)c1 | inconclusive: 37.9 µM [inhibitor, partial curve, poor fit] | –
19 | COc1ccccc1OCc1cc(-c2ccccc2)no1 | active: 9.53 µM | –
20 | CCOC(=O)C(C(=O)OCC)C(Nc1ccc(Br)cc1)c1ccccc1 (stereo unspecified) | inconclusive: 15.1 µM [inhibitor, partial curve, poor fit] | –
21 | O=C(Nc1ccc(Nc2ccccc2)cc1)Nc1ccccc1Cl | active: 10.7 µM | –
22 | O=C(NCC(=O)N1CCCC1)c1ccccc1F | inconclusive: 26.9 µM [inhibitor, partial curve, poor fit] | –
23 | Cc1ccc(Sc2ccc(/C=C3/C(=O)NN(c4ccccc4)C3=O)o2)cc1 | – | inactive: -13.1%
24 | COc1cccc(-c2csc(NC3OC(=O)c4c3ccc(OC)c4OC)n2)c1 (stereo unspecified) | inconclusive: 21.3 µM [inhibitor, single point] | –

Row | SMILES | Potency | activity change, negative = inhibition
25 | CC1CCN(c2ccc(-c3ccc(NC(=O)c4ccco4)cc3)nn2)CC1 | inconclusive: 6.75 µM [inhibitor, partial curve] | –
26 | Cc1ccc(Cn2cccc(NC(=O)c3ccco3)c2=O)cc1 | active: 15.1 µM | –
27 | CCc1ccc(-c2nc(CS(=O)CC(=O)NCCc3ccc(Cl)cc3)c(C)o2)cc1 (stereo unspecified) | – | inactive: -17%
28 | CNC(=O)c1c(Br)cnn1-c1ccc(C)cc1 | active: 7.57 µM | –
29 | COCCNC(=O)c1ccc2nc(Cc3ccc(OC)c(OC)c3)oc2c1 | inconclusive: 23.9 µM [inhibitor, partial curve] | –
30 | C/C(=N/Nc1ccc([N+](=O)[O-])cc1)c1ccc(C)cc1C | inconclusive: 33.8 µM [inhibitor, single point] | –
31 | COc1cccc(NC(=O)Cn2c(=O)n(-c3ccc(C)cc3)c(=O)c3ccc(C(=O)NCc4ccco4)cc32)c1 | – | inactive: 0.36%
32 | Cc1ccc(S(=O)(=O)Oc2ccc(/C=C3\N=C(c4cccc(C)c4)OC3=O)cc2)cc1 | – | inactive: 1.77%
33 | C=CCOc1cccc(C(=O)N2CCC(CCC(=O)NC3CC3)CC2)c1 | – | inactive: 0.433%
34 | C=CCSc1nnc(NC(=O)c2ccc(NC(C)=O)cc2)s1 | inconclusive: 42.6 µM [inhibitor, partial curve, poor fit] | –
35 | COC(=O)CCCCCNc1ccc(C(=O)OC)cc1N | inconclusive: 26.9 µM [inhibitor, partial curve, poor fit] | –
36 | CCc1nc(NCc2ccc3c(c2)OCO3)c2oc3ccccc3c2n1 | inconclusive: 23.9 µM [inhibitor, single point] | –
37 | O=C1CCCC2=C1C(c1ccc(O)c(O)c1)c1c(ccc3ncccc13)N2 (stereo unspecified) | inconclusive: 26.9 µM [inhibitor, single point] | –
38 | COc1ccc(NC(=O)c2nc[nH]c2C(=O)NCCCCCNC(=O)OC(C)(C)C)cc1 | inconclusive: 19 µM [inhibitor, partial curve, poor fit] | –
39 | COc1ccc(C2CCCN2C(=O)Nc2ccc(Cl)cc2)cc1OC (stereo unspecified) | inconclusive: 23.9 µM [inhibitor, partial curve] | –
40 | COc1ccccc1N(Cc1ccccc1)S(=O)(=O)c1cc(C(=O)O)ccc1Cl | inconclusive: 23.9 µM [inhibitor, single point] | –
41 | CC(=O)NS(=O)(=O)c1ccc(NC(=O)c2oc3c(Cl)cccc3c2C)cc1 | active: 13.5 µM | –
42 | Nc1nc(-c2ccc(NC(=O)c3ccco3)cc2)cs1 | active: 0.675 µM | –
43 | O=Cc1cn(-c2ccc(F)cc2)c2ccccc12 | inconclusive: 26.9 µM [inhibitor, single point] | –
44 | CCCc1cc(C(=O)Nc2nccs2)cs1 | active: 1.9 µM | –
45 | CCN1CCSc2ccc(C(=O)NCc3ccc(OC)cc3)cc21 | inconclusive: 42.6 µM [inhibitor, partial curve, poor fit] | –
46 | COC(=O)CCN(c1ccccc1)S(=O)(=O)c1cc(-c2cc(C)no2)ccc1OC | inactive | –
47 | CCCCCc1ccc(-c2cn(Cc3ccc(C)cc3)nn2)cc1 | inconclusive: 19 µM [inhibitor, partial curve, poor fit] | –
48 | CNC(=O)/C=C/c1cccc(C(F)(F)F)c1 | – | inactive: 3.27%

Row | SMILES | Potency | activity change, negative = inhibition
49 | Cc1ccccc1OCC(=O)N1CCCc2ccccc21 | inconclusive: 21.3 µM [inhibitor, partial curve] | –
50 | Cc1c(C(=O)N2CCN(c3cccc(Cl)c3)CC2)cccc1[N+](=O)[O-] | – | inactive: 2.47%
51 | Cn1ccc2c(OCC(=O)Nc3cc(C(F)(F)F)ccc3Cl)cccc2c1=O | – | inactive: -1.6%
52 | CCCCOc1cccc(C(=O)N(Cc2sccc2C)C2CCS(=O)(=O)C2)c1 (stereo unspecified) | – | inactive: -7.93%
53 | O=[N+]([O-])c1ccc(-c2nc(=S)c3c(o2)CCCC3)cc1 | inconclusive: 15.1 µM [inhibitor, partial curve, poor fit] | –
54 | COc1ccc2c(c1)oc(=O)c1cc(OC)ccc12 | active: 3.01 µM | –
55 | Nc1c(-c2ccccc2)cnc2c(-c3ccccc3)cnn12 | active: 0.239 µM | –
56 | Cc1ccc(-c2n[nH]c(=O)c3ccccc23)cc1S(=O)(=O)Nc1ccccc1 | – | inactive: 0.886%
57 | CC1CCC(NC(=O)CC(NC(N)=O)c2ccccc2Cl)CC1 (stereo unspecified) | – | inactive: -2.53%
58 | C/C(=N\NC(=O)c1cccc(C)c1O)c1ccc(NC(=O)Cc2ccccc2)cc1 | inconclusive: 21.3 µM [inhibitor, single point] | –
59 | CN(C(=O)c1ccc(NC(=O)Cc2ccc(NC(=O)C3CCCN(C(=O)c4ccccc4)C3)cc2)cc1)C1CC1 (stereo unspecified) | inconclusive: 20 µM [inhibitor, partial curve, poor fit] | –
60 | COc1ccc(/C=N/NC2=NS(=O)(=O)c3ccccc32)cc1 | inconclusive: 19 µM [inhibitor, partial curve] | –
61 | COc1ccc(OC)c(NC(=O)c2cccn2-c2nnc(N3CCCCC3)s2)c1 | inconclusive: 30.1 µM [inhibitor, single point] | –
62 | COc1cc(NC(=O)CSc2ncc(S(=O)(=O)c3ccc(Br)cc3)c(=O)[nH]2)cc(OC)c1 | inconclusive: 9.53 µM [inhibitor, partial curve] | –
63 | COc1ccc(/C=N/Nc2nc3ccccc3[nH]2)c(OC)c1OC | active: 1.51 µM | –
64 | COc1ccc(C(=O)/C=C/c2ccc(OC)c(O)c2)c(F)c1 | active: 10.7 µM | –
65 | O=C(c1ccc2nc(Cc3ccccc3F)oc2c1)N1CC[C@H](O)C1 | inconclusive: 33.8 µM [inhibitor, single point] | –
66 | Fc1ccc(-c2noc3ncnc(NC4CCCCC4)c23)cc1 | inconclusive: 23.9 µM [inhibitor, partial curve, poor fit] | –
67 | O=c1c(=Nc2ccccc2O)c(=O)c2ccccc12 | – | inactive: -18.7%
68 | COc1ccc(Br)cc1C(=O)NC(=S)Nc1cc(-c2nc3ccccc3[nH]2)ccc1C | inconclusive: 12 µM [inhibitor, partial curve] | –
69 | COC(=O)Cn1cc(/C=N/NC(=O)c2ccc(C#N)cc2F)c2ccccc21 | inconclusive: 23.9 µM [inhibitor, single point] | –
70 | COc1cc2c(cc1NC(=O)C1CCCO1)oc1ccccc12 (stereo unspecified) | active: 6.01 µM | –
71 | O=C(CSCC(=O)N1CCCCC1)Nc1nc(-c2ccc(Cl)s2)cs1 | inconclusive: 37.9 µM [inhibitor, partial curve, poor fit] | –

Reference: PubChem BioAssay AID588342 (National Center for Advancing Translational Sciences (NCATS), 2011)
